From a collection of fitness landscapes (doi:10.1016/j.celrep.2020.107928)
The full ranking holds about 81,000 sequences; the median of “one-hybrid fitness for binding parS DNA” is about -0.17, and the highest 2% start at about 0.51. The list shows a part of the results.

B1: Caulobacter ParB omega fusion; a variant is named by its letters at X, in order, B8GW30 (parent)
chain: MESVVVGEPGMSEGRRGLGRGLSALLGEVDAAPAQAPGEQLGGSREAPIEILQRNPDQPRRTFREEDLEDLSNSIREKGVLQPILVRPSPDTAGEYQIVAGERAWRAAQRAGLKTVPIMVRELDDLAVLEIGIIENVQRADLNVLEEALSYKVLMEKFERTQENIAQTIGKSXSHVANXMRLLXLPDEVQSYLVSGELTAXHARAIAAAADPVALAKQIIEGGLSVRETEALARKAPNLSAGKSKGGRPPRVKDTDTQALESDLSSVLGLDVSIDHRGSTGTLTITYATLEQLDDLCNRLTRGI

Variants of: B1
Experiment: one-hybrid fitness for binding parS DNA (scaled: cognate 1, non-cognate 0); higher = stronger binding
Conditions: with parS DNA site
How it was run: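 Caulobacter ParB libraries with four specificity codons randomised were screened by bacterial one-hybrid selection in the E. coli USO strain, using a HIS3 reporter whose site lies 19 bp from the promoter. Selection ran for 48 hours at 37°C on M9 lacking histidine, with 0.1 mM IPTG and 5 mM 3-AT. Plasmids were Illumina-sequenced before and after selection, three replicate libraries were pooled, and variants with under 10 reads were dropped. Fitness is the log change in each variant's read ratio to wild type, rescaled against the cognate and non-cognate sites.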

Row | Variant | one-hybrid fitness for binding parS DNA
1 | FSKG | ≤ 0.2
2 | HLRK | ≤ 0.2
3 | LDSE | ≤ 0.2
4 | GPRH | ≤ 0.2
5 | MKNT | ≤ 0.2
6 | AIYI | ≤ 0.2
7 | FTNS | ≤ 0.2
8 | GPRF | ≤ 0.2
9 | IWQL | ≤ 0.2
10 | IAKA | ≤ 0.2
11 | VKEC | ≤ 0.2
12 | LGRV | ≤ 0.2
13 | EKVG | ≤ 0.2
14 | ATTE | ≤ 0.2
15 | PDCF | ≤ 0.2
16 | HSDW | ≤ 0.2
17 | LLVW | ≤ 0.2
18 | PMLW | ≤ 0.2
19 | AWRC | ≤ 0.2
20 | VWAR | ≤ 0.2
21 | TCRG | ≤ 0.2
22 | GMTM | ≤ 0.2
23 | CAVE | ≤ 0.2
24 | TPKY | ≤ 0.2

Row | Variant | one-hybrid fitness for binding parS DNA
25 | NSTD | ≤ 0.2
26 | PPLE | ≤ 0.2
27 | DQVR | ≤ 0.2
28 | LCNG | ≤ 0.2
29 | HNAS | ≤ 0.2
30 | RKMW | ≤ 0.2
31 | YVVL | ≤ 0.2
32 | WDCG | 0.41
33 | HSEY | ≤ 0.2
34 | FYQR | ≤ 0.2
35 | FERG | ≤ 0.2
36 | AWHG | ≤ 0.2
37 | PWSQ | 0.287
38 | KYMA | ≤ 0.2
39 | PRHW | ≤ 0.2
40 | VSYW | ≤ 0.2
41 | PGHL | ≤ 0.2
42 | FART | ≤ 0.2
43 | PHKV | ≤ 0.2
44 | RILN | 0.422
45 | QSLP | ≤ 0.2
46 | TNTV | ≤ 0.2
47 | VHYS | ≤ 0.2
48 | GPNS | ≤ 0.2

Row | Variant | one-hybrid fitness for binding parS DNA
49 | ISWV | ≤ 0.2
50 | TDLP | ≤ 0.2
51 | RCRY | 0.695
52 | VCWR | ≤ 0.2
53 | HRSH | ≤ 0.2
54 | LGGG | ≤ 0.2
55 | KAWD | ≤ 0.2
56 | QAVV | ≤ 0.2
57 | SQHG | ≤ 0.2
58 | ISAG | ≤ 0.2
59 | CPYR | ≤ 0.2
60 | MSTF | ≤ 0.2
61 | YHPC | ≤ 0.2
62 | DFGR | ≤ 0.2
63 | TGMR | ≤ 0.2
64 | WVMG | ≤ 0.2
65 | TAQN | ≤ 0.2
66 | ICGS | ≤ 0.2
67 | VDLF | ≤ 0.2
68 | AFAA | ≤ 0.2
69 | MHWC | ≤ 0.2
70 | ASFR | ≤ 0.2
71 | QAKK | ≤ 0.2
72 | HVSG | ≤ 0.2

Row | Variant | one-hybrid fitness for binding parS DNA
73 | THRW | ≤ 0.2
74 | RCAP | ≤ 0.2
75 | IIAS | ≤ 0.2
76 | RFCW | ≤ 0.2
77 | ILKY | ≤ 0.2
78 | EQNI | ≤ 0.2
79 | MRMG | ≤ 0.2
80 | LHTF | ≤ 0.2
81 | RVAL | ≤ 0.2
82 | PVPD | ≤ 0.2
83 | LWGR | ≤ 0.2
84 | QASH | ≤ 0.2
85 | TGDA | ≤ 0.2
86 | VEHT | ≤ 0.2
87 | RGHI | ≤ 0.2
88 | NWQM | ≤ 0.2
89 | REGW | ≤ 0.2
90 | SNQE | ≤ 0.2
91 | QEAW | ≤ 0.2
92 | AWRE | ≤ 0.2
93 | CHAT | ≤ 0.2
94 | PHHD | ≤ 0.2
95 | CLHK | ≤ 0.2
96 | VMPP | ≤ 0.2

Row | Variant | one-hybrid fitness for binding parS DNA
97 | ANKW | ≤ 0.2
98 | CLYG | ≤ 0.2
99 | LTWA | ≤ 0.2
100 | RVWM | 0.344
101 | RNTE | ≤ 0.2
102 | PDHQ | ≤ 0.2
103 | HHVV | ≤ 0.2
104 | EDWS | ≤ 0.2
105 | NWEC | ≤ 0.2
106 | EGDD | ≤ 0.2
107 | SSFV | ≤ 0.2
108 | GPRR | ≤ 0.2
109 | SHNG | ≤ 0.2
110 | QQPL | ≤ 0.2
111 | TAGR | ≤ 0.2
112 | SCTV | ≤ 0.2
113 | HNGW | ≤ 0.2
114 | VLSL | ≤ 0.2
115 | MQAH | ≤ 0.2
116 | NPNF | ≤ 0.2
117 | QCAQ | ≤ 0.2
118 | QMKG | ≤ 0.2
119 | TFNG | ≤ 0.2
120 | YSPM | ≤ 0.2

Row | Variant | one-hybrid fitness for binding parS DNA
121 | YVFC | ≤ 0.2
122 | SDYG | ≤ 0.2
123 | RNIN | ≤ 0.2
124 | LSKG | ≤ 0.2
125 | HRHG | 0.27
126 | PCKV | ≤ 0.2
127 | ELQC | ≤ 0.2
128 | QILI | ≤ 0.2
129 | HRER | ≤ 0.2
130 | TQPS | ≤ 0.2
131 | TFCG | ≤ 0.2
132 | MVMN | ≤ 0.2
133 | APLD | ≤ 0.2
134 | KWYY | ≤ 0.2
135 | TIYR | ≤ 0.2
136 | AKPG | ≤ 0.2
137 | LLNQ | ≤ 0.2
138 | RGSR | ≤ 0.2
139 | IMSL | ≤ 0.2
140 | WMND | ≤ 0.2
141 | SYWC | ≤ 0.2
142 | MIKT | ≤ 0.2
143 | QLMF | ≤ 0.2
144 | TKVS | ≤ 0.2

Row | Variant | one-hybrid fitness for binding parS DNA
145 | MPAR | ≤ 0.2
146 | TFPC | ≤ 0.2
147 | AQRY | ≤ 0.2
148 | AYVE | ≤ 0.2
149 | CYKR | ≤ 0.2
150 | EDHC | ≤ 0.2
151 | KYMT | ≤ 0.2
152 | LMLM | ≤ 0.2
153 | GYKH | ≤ 0.2
154 | HTYM | ≤ 0.2
155 | PEYQ | ≤ 0.2
156 | NFSM | ≤ 0.2
157 | TIRY | ≤ 0.2
158 | CEIR | ≤ 0.2
159 | LRNQ | ≤ 0.2
160 | LCFF | ≤ 0.2
161 | KMLY | ≤ 0.2
162 | NHKM | ≤ 0.2
163 | IALF | ≤ 0.2
164 | CVNK | ≤ 0.2
165 | IMES | ≤ 0.2
166 | CHYY | ≤ 0.2
167 | PSMM | ≤ 0.2
168 | TIFA | ≤ 0.2

Row | Variant | one-hybrid fitness for binding parS DNA
169 | KTER | ≤ 0.2
170 | MLAG | ≤ 0.2
171 | LTKS | ≤ 0.2
172 | HGRH | ≤ 0.2
173 | RWNF | 0.206
174 | TRYV | ≤ 0.2
175 | KMLL | ≤ 0.2
176 | CAQA | ≤ 0.2
177 | NGSD | ≤ 0.2
178 | WPRM | ≤ 0.2
179 | AYQR | ≤ 0.2
180 | GERT | ≤ 0.2
181 | AYLD | ≤ 0.2
182 | LVKG | ≤ 0.2
183 | VPFA | ≤ 0.2
184 | PGTP | ≤ 0.2
185 | DMGA | ≤ 0.2
186 | TWTR | ≤ 0.2
187 | VAKN | ≤ 0.2
188 | FGFS | ≤ 0.2
189 | GDSY | ≤ 0.2
190 | LAMI | ≤ 0.2
191 | LLFF | ≤ 0.2
192 | AMLI | ≤ 0.2

Row | Variant | one-hybrid fitness for binding parS DNA
193 | AIQG | ≤ 0.2
194 | LATA | ≤ 0.2
195 | SHLK | ≤ 0.2
196 | LGQY | ≤ 0.2
197 | QKIM | ≤ 0.2
198 | VYLN | ≤ 0.2
199 | SCFV | ≤ 0.2
200 | TMWG | ≤ 0.2
201 | PSTS | ≤ 0.2
202 | QGIA | ≤ 0.2
203 | SCCE | ≤ 0.2
204 | KLDV | ≤ 0.2
205 | TYRR | ≤ 0.2
206 | NPYF | ≤ 0.2
207 | EPPV | ≤ 0.2
208 | RWRE | ≤ 0.2
209 | RDVV | ≤ 0.2
210 | WPQS | ≤ 0.2
211 | LKQH | ≤ 0.2
212 | AVKM | ≤ 0.2
213 | IRLE | ≤ 0.2
214 | QRPT | ≤ 0.2
215 | WTAN | ≤ 0.2
216 | PGRG | ≤ 0.2

Row | Variant | one-hybrid fitness for binding parS DNA
217 | YLLL | ≤ 0.2
218 | GDQQ | ≤ 0.2
219 | NHNN | ≤ 0.2
220 | RQKS | 0.864
221 | LLQR | ≤ 0.2
222 | QLKQ | ≤ 0.2
223 | GGPT | ≤ 0.2
224 | YMRL | ≤ 0.2
225 | NNGT | ≤ 0.2
226 | QCRC | ≤ 0.2
227 | TPMR | ≤ 0.2
228 | NGDT | ≤ 0.2
229 | TICP | ≤ 0.2
230 | VDKS | ≤ 0.2
231 | DPVC | ≤ 0.2
232 | QIAP | ≤ 0.2
233 | KHGG | ≤ 0.2
234 | RGCW | ≤ 0.2
235 | YELP | ≤ 0.2
236 | QHDV | ≤ 0.2
237 | RRMF | ≤ 0.2
238 | PQMA | ≤ 0.2
239 | KNQL | ≤ 0.2
240 | FVSH | ≤ 0.2

Row | Variant | one-hybrid fitness for binding parS DNA
241 | MLAR | ≤ 0.2
242 | SHRN | ≤ 0.2
243 | GYLC | ≤ 0.2
244 | RHCL | ≤ 0.2
245 | QARQ | ≤ 0.2
246 | GVAC | ≤ 0.2
247 | MEAC | ≤ 0.2
248 | ETAA | ≤ 0.2
249 | WRWL | ≤ 0.2
250 | SLQN | ≤ 0.2
251 | LMIF | ≤ 0.2
252 | HILS | ≤ 0.2
253 | LAWC | ≤ 0.2
254 | PKNS | ≤ 0.2
255 | QLWV | ≤ 0.2
256 | GYES | ≤ 0.2
257 | ITWT | ≤ 0.2
258 | NWTF | ≤ 0.2
259 | RLNK | ≤ 0.2
260 | FYKT | ≤ 0.2
261 | NQRG | ≤ 0.2
262 | AVPT | ≤ 0.2
263 | TVET | ≤ 0.2
264 | MLSG | ≤ 0.2

Row | Variant | one-hybrid fitness for binding parS DNA
265 | CYSR | ≤ 0.2
266 | TEKY | ≤ 0.2
267 | MIDR | ≤ 0.2
268 | DAWS | ≤ 0.2
269 | MING | ≤ 0.2
270 | GPSA | ≤ 0.2
271 | QVET | ≤ 0.2
272 | LANY | ≤ 0.2
273 | HPVQ | ≤ 0.2
274 | SWTS | ≤ 0.2
275 | NEPY | ≤ 0.2
276 | ISPR | ≤ 0.2
277 | RCKM | 0.402
278 | PVSY | ≤ 0.2
279 | RCLV | ≤ 0.2
280 | VEEM | ≤ 0.2
281 | HPFR | ≤ 0.2
282 | VIAV | ≤ 0.2
283 | LPQE | ≤ 0.2
284 | CRSF | ≤ 0.2
285 | GPHC | ≤ 0.2
286 | YELL | ≤ 0.2
287 | RTWF | 0.275
288 | FALA | ≤ 0.2

Row | Variant | one-hybrid fitness for binding parS DNA
289 | RNWW | ≤ 0.2
290 | SGAN | ≤ 0.2
291 | GVFC | ≤ 0.2
292 | YVCL | ≤ 0.2
293 | CAET | ≤ 0.2
294 | PHAK | ≤ 0.2
295 | DKWS | ≤ 0.2
296 | PSDC | ≤ 0.2
297 | HKAC | ≤ 0.2
298 | NWNS | ≤ 0.2
299 | AVKT | ≤ 0.2
300 | LIDC | ≤ 0.2
301 | KSMW | ≤ 0.2
302 | ITPC | ≤ 0.2
303 | WTLY | ≤ 0.2
304 | MAWC | ≤ 0.2
305 | HRPA | ≤ 0.2
306 | CLDS | ≤ 0.2
